Results from the RNAGym collection of RNA variant scans (doi:10.1073/pnas.2313332121).
Variants at the background level are over-represented here.

B1: TPR 5TU (parent)
chain: GGAUCUUCUCGAUCUAACAAAAAAGACAAAUCUGCCACAAAGCUUGAGAGCAUCUUCGGAUGCAGAGGCGGCAGCCUUCGGUGGCGCGAUAGCGCCAACGUUCUCAACUAUGACACGCAAAACGCGUGCUCCGUUGAAUGGAGUUUAUCAUG

Variants of: B1
Assay: polymerase ribozyme fitness, log enrichment relative to wild type (log ratio); higher = more active; in vitro selection for triplet polymerase activity
Method in brief: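 Input and output libraries were sequenced on Illumina after a single in vitro selection round, run in triplicate on PCR-built, transcribed mutant libraries of each subunit of a heterodimeric triplet polymerase ribozyme. Selection annealed libraries to a biotinylated primer, the partner subunit and triplets, incubated them frozen at −7 °C, then gel-excised extended constructs for streptavidin-bead capture and RT-PCR. Genotypes with ≥10 input reads and ≥1 read per output were kept. Fitness is the logarithm, taken in base 2, of genotype enrichment divided by wild-type enrichment, using inverse-variance-weighted replicate averages.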

| Variant | polymerase ribozyme fitness (log ratio) |
| --- | --- |
| U13G A30U C87U C105G A115G G143U | ≤ -4.2 |
| A12U U15G C38U C69A G81U U82C G84A A150U | ≤ -4.2 |
| A12U C14G | -2.05 |
| U13G C108U | ≤ -4.2 |
| U13A U15C C27A A29G C93U A119C G126C | ≤ -4.2 |
| U13G G46U C93U U135G U148C | ≤ -4.2 |
| A12U U15G A39U G86U U102G C116U | ≤ -4.2 |
| U13A A17U C32A U56G C76A G88A A106G U134A U145G U148C | ≤ -4.2 |
| U13G A91U | ≤ -4.2 |
| U13A A73U A89U C96U A106C | ≤ -4.2 |
| U13C G94C U104G | -2.15 |
| A12U A23C C103A U104G A115G C125G G133U | ≤ -4.2 |
| U13A U56A C87A A91U G140C | ≤ -4.2 |
| A12U A17U C72G A91G C149A | ≤ -4.2 |
| U13C A21G U31C G42A A52C C95A C129G | ≤ -4.2 |
| U13G A20U G46C A52G U78A C85G U148A | ≤ -4.2 |
| A12U C43U A73U G100C A115C A120U G143C | ≤ -4.2 |
| U13G A60U C63U G84A G86U A120C | ≤ -4.2 |
| U13G A21U C43A U55A G58U C87G G143U | ≤ -4.2 |
| U13A A20C A28U A64G A122G G141A | ≤ -4.2 |
| U13C A22G A49U G68C C79G | ≤ -4.2 |

| Variant | polymerase ribozyme fitness (log ratio) |
| --- | --- |
| A12U C54A | -1.78 |
| A12U A23C G68U G83A A106G | ≤ -4.2 |
| A12U G84A | -1.05 |
| U13G A19C A66C G70U G88C U90C | ≤ -4.2 |
| A12U A16G A21C A28U G34U U78G C93U C95U C118G U135G | ≤ -4.2 |
| U13C C43A U44A G59C A98G | ≤ -4.2 |
| U13G A16C A28G G59A C63A C85U | ≤ -4.2 |
| U13G C27G C51A G84C A142G A147C | ≤ -4.2 |
| A12G U33G C129A G133C G141C | ≤ -4.2 |
| U13G A19U A28C A91G G112C A115G A120G G140C A147U U151C | ≤ -4.2 |
| U13A A19G C63U G83C A97U G141C | ≤ -4.2 |
| U13G A47C G50U C69G G71C C95G A115G C132A | ≤ -4.2 |
| A12U A24G G42A C57U U77A G84A C103G | ≤ -4.2 |
| A12U C76G G80A C87A A119U | ≤ -4.2 |
| A12U C87U A120U | -0.814 |
| U13A G50C A52C C87A A98U G117U C123U | ≤ -4.2 |
| A12U A16U U45A G59A A66U C96G | ≤ -4.2 |
| A12U C38G A47G C54G U101G U148A | ≤ -4.2 |
| A12U C38U A41C C87U G141A U144A | ≤ -4.2 |
| U13C A16U C57U C75U G83C C105G | ≤ -4.2 |
| U13A A40G G86U U104G C108A G141A | ≤ -4.2 |

| Variant | polymerase ribozyme fitness (log ratio) |
| --- | --- |
| U13G A29U C75A U77G C93U | ≤ -4.2 |
| A12U A19C C35U A52G C85A G133U U145C | ≤ -4.2 |
| U13A A29G A49U U55A G83C | ≤ -4.2 |
| A12U A39G G48C C93U U127G G140C | ≤ -4.2 |
| U13G A26U A91G C108U | ≤ -4.2 |
| U13C C32G A40U G58U C76A | ≤ -4.2 |
| U13G G59U C96U | -0.998 |
| A12U A39G C95U | -2.3 |
| U13G G71U U77G C79U | ≤ -4.2 |
| A12U G74A A89U C93G | ≤ -4.2 |
| U13C A20C A21C G58A U82A U101A | -1.36 |
| A12U A17G A23G C35U G83A C87G G136U | ≤ -4.2 |
| U13A U44G G46A U61G C85A A115G U127C | ≤ -4.2 |
| U13G A41C C93A | ≤ -4.2 |
| A12U G34C G65U C95G A107G A121C U144G | ≤ -4.2 |
| U13G C18U A30C U45A C54U G68A C99A G128U | ≤ -4.2 |
| U13G G46A G62C C93A | ≤ -4.2 |
| U13G C85U A106G G126U G140C | -3.96 |
| U13G A24U G58U G74C C95U U127A C129U | ≤ -4.2 |
| U13G U15A G50U U53A G94U | ≤ -4.2 |
| U13G A30U U33A G48C C51U U53C G92C C105U C114A A120G | ≤ -4.2 |

| Variant | polymerase ribozyme fitness (log ratio) |
| --- | --- |
| U13G G83C U101G G133U | ≤ -4.2 |
| U13G C14G A20U A37G A47C A49U C99U C149U | ≤ -4.2 |
| A12G U55C C57G C87G A121G U148A A150C | ≤ -4.2 |
| U13G A30C C85A | ≤ -4.2 |
| U13G C43A C79U | ≤ -4.2 |
| U13G C14U A16G G59A U90G | -4.01 |
| U13G G94C G143U U145G | ≤ -4.2 |
| A12U A40G A97U U134C A138G | ≤ -4.2 |
| A12U C18U A47G C85A C93A A98C A121U | ≤ -4.2 |
| A12U A22G A60U G71C U135G | ≤ -4.2 |
| A12U A122U A147C | -0.484 |
| U13C A49C | ≤ -4.2 |
| U13C C18G C69G C72U G88C C105A | ≤ -4.2 |
| U13G A28C C57A G83U G128A | ≤ -4.2 |
| A12U C75G A107G C125A | ≤ -4.2 |
| A12U A16U A47C U55G C76U C93G C99U C125A A142C | ≤ -4.2 |
| U13G A28C G83A C114A G140C A142C | ≤ -4.2 |
| U13C C18G A19C G68C C85A C118U | ≤ -4.2 |
| A12U G46A G71A C79U C85A U135C | ≤ -4.2 |
| U13G C14A A19G C51U G71C G83C G92C C125G | ≤ -4.2 |
